This is one part of the list.

The assay deals with T1, OsWOX13 (Oryza sativa, UniProt Q5QMM3 1-267).
T1 sequence: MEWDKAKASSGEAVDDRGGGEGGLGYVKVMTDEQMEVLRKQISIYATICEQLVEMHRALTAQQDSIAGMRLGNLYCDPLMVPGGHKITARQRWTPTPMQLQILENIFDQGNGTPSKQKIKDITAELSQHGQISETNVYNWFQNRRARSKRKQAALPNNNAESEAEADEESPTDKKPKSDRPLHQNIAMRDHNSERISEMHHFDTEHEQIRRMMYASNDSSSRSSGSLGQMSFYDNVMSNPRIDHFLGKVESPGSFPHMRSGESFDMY
The experiment in a line: protein-binding microarray (RPBM); PBS, 2% BSA, 51.3 ng/ul salmon testes DNA, 50 uM zinc acetate, 200 nM TF, 25 C, 1 h; high values mean tight binding. As to conditions: protein: recombinant; tags: N-terminal polyhistidine and DsRed monomer fusion (pET32a); label: CyDye5-dUTP incorporated in the synthesized complementary strand; 3' TTTTT single-stranded linker to array surface; dsDNA, one strand shown. A digest of the protocol:
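An Axon 4000B scanner gave the binding signal as per-feature fluorescence intensity in arbitrary units. This followed washing of a custom Agilent array that had been incubated for 1 h at 25 °C with 200 nM protein in PBS, 2% BSA, salmon testes DNA and 50 µM zinc acetate. The proteins were transcription factors fused at the N-terminus to polyhistidine and DsRed, expressed in E. coli BL21-CodonPlus and purified on Ni–NTA.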
Turning to “TTGATTTGAAAGGTACTACCTCTGTTTCAGGTTAGAAAGTCGGAGTCACCTAGTGCAG”, the binding signal was 3380 fluorescence intensity (a.u.). As for “ATACATTGATTAATCAGCCAGCCAGCCAGCCAGCCACTGACGGAGTCACCTAGTGCAG”, the binding signal was 28700 fluorescence intensity (a.u.). On to “AACAACAAATTTGGATGTCTGATTTGTTCTCAGGTTTGATCGGAGTCACCTAGTGCAG”, for which the binding signal was 30200 fluorescence intensity (a.u.). “TTCAAATTTTAATAATTTAAGATATTGATATTTAACTGTACGGAGTCACCTAGTGCAG”: the binding signal is 32500 fluorescence intensity (a.u.). The same measure for “TTACTTCCATCATATAGTAATTGCATTTCTAGACAAATTACGGAGTCACCTAGTGCAG”: 3740 fluorescence intensity (a.u.); for “TTAATTATTTTGCTGACATGATTTGTTTTCATTTCGTTGACGGAGTCACCTAGTGCAG”: 24100 fluorescence intensity (a.u.); for “ACCAAATAGATTGATCGATCGCCCAGTTCGATTATTTATTCGGAGTCACCTAGTGCAG”: 36300 fluorescence intensity (a.u.). In the case of “AATATAGATAGTTAACACTAAATTGGAGGGAGTGCTCGCGCGGAGTCACCTAGTGCAG” it was 7480 fluorescence intensity (a.u.); in that of “TTGCTTTAACTAGCTGCTTAATTATATGTTCTTTGTATTTCGGAGTCACCTAGTGCAG”, 5230 fluorescence intensity (a.u.); in that of “TCCATTCATGGCGGCTTAATTGGCGGTGTTGGCTATGGACCGGAGTCACCTAGTGCAG”, 10300 fluorescence intensity (a.u.).

Regarding “CCAAACATAGATTAGCTAACTTTGCTCTACCAAGAAATTGCGGAGTCACCTAGTGCAG”, the binding signal is 7560 fluorescence intensity (a.u.). In the case of “GGTTCCACTATCAATCTTAGACAGTATAAACAGGTCAACACGGAGTCACCTAGTGCAG” it was 5380 fluorescence intensity (a.u.); in that of “GGTTGTATGACGTTAATTTATACCAGAACAGAACCGTCCTCGGAGTCACCTAGTGCAG”, 4860 fluorescence intensity (a.u.). For “TTGAGTGACATGCAAATAATGAGGGGAGTTTAAAATCTACCGGAGTCACCTAGTGCAG”, the binding signal was 5670 fluorescence intensity (a.u.). The same measure for “TAAACTAGTAGATAATTAACCAATTTGGAACATGTGCCAGCGGAGTCACCTAGTGCAG”: 15100 fluorescence intensity (a.u.); for “ACCTGTTGATTGTTGTAGTTCACGGCCCAGTGGCATCCCCCGGAGTCACCTAGTGCAG”: 30300 fluorescence intensity (a.u.); for “TTTTAGATTTGATATATGCATCAATACAGGTTGCCTCAAACGGAGTCACCTAGTGCAG”: 6460 fluorescence intensity (a.u.). “TGGAATTTATTTTAATTTTGATTTAGAATTTTGGTTAATACGGAGTCACCTAGTGCAG”: the binding signal is 4870 fluorescence intensity (a.u.). The same measure for “TTAAAATGGTTAATCATGTATGCGAAAAGCTGTGGGCCTCCGGAGTCACCTAGTGCAG”: 15000 fluorescence intensity (a.u.).

For “CTGGAGATTGATCCCACCCAACGAACCAGCGACAAAAGGGCGGAGTCACCTAGTGCAG”, the binding signal was 19300 fluorescence intensity (a.u.). In the case of “TCTGATGAGGCCCATTACGAGAGAATCTGCTTCGGCCCAGCGGAGTCACCTAGTGCAG” it was 5800 fluorescence intensity (a.u.); in that of “TTTTGATTTAGATTTTGCCATACTATAATACGTCCGTCCTCGGAGTCACCTAGTGCAG”, 35300 fluorescence intensity (a.u.). In the case of “CTAGTGATGATTGGACGACACTTTCTTAATAATGAAAACACGGAGTCACCTAGTGCAG” it was 37700 fluorescence intensity (a.u.); in that of “TTTTAAAATAAATCTAGTCAAATTTAGGATATTTGACTTGCGGAGTCACCTAGTGCAG”, 4290 fluorescence intensity (a.u.); in that of “ATCTTGTACATTGCACAAATTGACTATTGGTTTGTAGGAGCGGAGTCACCTAGTGCAG”, 4300 fluorescence intensity (a.u.). The same measure for “TTTGAATGAAAATCAACTTTAAATTTGAGTTTGAAAATTCCGGAGTCACCTAGTGCAG”: 11000 fluorescence intensity (a.u.); for “CGAATTATGTAATTTGTGTATAAAGTTTGATACGGATCGACGGAGTCACCTAGTGCAG”: 6310 fluorescence intensity (a.u.). As to “CCTTCAATTATACCTTCCAACCCACACTGTATGACCTGCCCGGAGTCACCTAGTGCAG”, the binding signal is 8920 fluorescence intensity (a.u.).

Turning to “AGCTTTGATTTTCCTGGTATGACATGAAGCATTGTTCAGACGGAGTCACCTAGTGCAG”, the binding signal is 3430 fluorescence intensity (a.u.). The same measure for “GTGGTTAATTAATTATATTGAAGCATACTAATTGAAGATACGGAGTCACCTAGTGCAG”: 39800 fluorescence intensity (a.u.). The same measure for “AGGACATCAATCATGGGGAAACATAGGTTCCAACTTCCAACGGAGTCACCTAGTGCAG”: 23100 fluorescence intensity (a.u.); for “TTTAAATTAAATATCATCTTTCATAATACATAATGTTAACCGGAGTCACCTAGTGCAG”: 17500 fluorescence intensity (a.u.); for “AGTACTGTTGGATTGATGACGGTGAGTACATCCCCAAGCACGGAGTCACCTAGTGCAG”: 4750 fluorescence intensity (a.u.). The same measure for “TCGTCAATAACAAATTTGTATTACTCATCAATATCTATAACGGAGTCACCTAGTGCAG”: 9320 fluorescence intensity (a.u.); for “GCCTGATTATTTTGGATGATTTATGGGAGAACAGCTGTTTCGGAGTCACCTAGTGCAG”: 24400 fluorescence intensity (a.u.). As for “TGATAAATAATTACATAACTCTTTCAATGTGACAAAGTAGCGGAGTCACCTAGTGCAG”, the binding signal is 12400 fluorescence intensity (a.u.).

For “AGGATTGACAGGAACTGAAAATATTCAGTTTGAGAATGCTCGGAGTCACCTAGTGCAG”, the binding signal was 32000 fluorescence intensity (a.u.). In the case of “ACGTAGACTAATAATAAAACAAATTACAGATTCCGCACGTCGGAGTCACCTAGTGCAG” it was 5620 fluorescence intensity (a.u.); in that of “GGGGCAAATTGGTCTTGTCATGAAAGCTAAAAGCCAAAGGCGGAGTCACCTAGTGCAG”, 4730 fluorescence intensity (a.u.); in that of “ATGTACTGTTGACAGGGAACTGATCTTTAACCACTTCAGCCGGAGTCACCTAGTGCAG”, 4890 fluorescence intensity (a.u.). The same measure for “GGTCCTAATTAATTATTTGCATGCATCCATGCCTTATATTCGGAGTCACCTAGTGCAG”: 49700 fluorescence intensity (a.u.); for “GTTGTAATCTGTGTAATTAGTTATTGTGTTAGCCTATATTCGGAGTCACCTAGTGCAG”: 10300 fluorescence intensity (a.u.).

Values taken from publication PMC7819943, “Rice protein-binding microarrays: a tool to detect cis-acting elements near promoter regions in rice”.
